# According to PubChem BioAssay AID651820 (National Center for Advancing Translational Sciences (NCATS), 2012):
# Several values for one entry are separate records, joined by “and”; a condition that tells them apart may be missing. Equal entries are not always repeated. About 12,000 (3.5%) of roughly 340,000 compounds were called active. The shares of active, inactive and inconclusive entries below differ from those in the screen. The call rests on the fitted dose curve; in most records, active means well fitted inhibition curve with a large enough effect; inconclusive means small, poorly fitted or top-dose-only effect, or another doubt; inactive means no such curve, though single readings can be large or run the other way. Where the call is inconclusive, the potency comes from a doubtful curve fit.
# Assay: qHTS Assay for Inhibitors of Hepatitis C Virus (HCV)
# Conditions: Huh7.5.1 HCVcc-Cre (HCVcc is cell-culture hepatitis C virus) infection, luciferase reporter, 44 h; series mostly up to 41.8 µM
# Summary of the method: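 HCVcc-Cre virus at an moi near 0.5 was added right after compound to cells cultured 4 h from seeding (1,000 cells/well). Luciferase activity was determined 44 h later, 15 min after substrate addition at RT.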
# Potency means the concentration at half of the fitted maximal effect; tags describe the fitted curve by direction and shape.
row,Compound,Potency
1,COc1ccc(NC(=O)C2CCN(S(=O)(=O)c3cn(C)nc3C)CC2)cc1,inactive
2,O=C(NCCO)c1ccc(CSc2nc3ccccc3[nH]2)cc1,"inconclusive: 0.501 µM [inhibitor, partial curve, poor fit]"
3,O=[N+]([O-])c1ccc(Nc2nc(N3CCOCC3)nc(N3CCOCC3)n2)cc1,"inconclusive: 0.562 µM [inhibitor, full curve]"
4,CCOc1cc(C)c(S(=O)(=O)NC2CCCCC2)cc1C,"inconclusive: 31.6 µM [inhibitor, single point]"
5,CC1C/C(=N\Nc2ccc(S(N)(=O)=O)cc2[N+](=O)[O-])CC(C)(C)C1 (centres undefined),"inconclusive: 10 µM [inhibitor, single point]"
6,Cc1c(CN(C)C(=O)c2sc3cc(Cl)ccc3c2Cl)cnn1C,active: 22.4 µM
7,CN(C1CCCCC1)S(=O)(=O)c1cccc(C(=O)Nc2ccccn2)c1,"inconclusive: 2.51 µM [inhibitor, full curve]"
8,COC(=O)C1=C(C)N(C)C(=O)NC1c1ccc(O)c(Cl)c1 (centres undefined),inactive
9,CC(C)=CC(=O)OCc1csc(CC(=O)Nc2ccccc2C)n1,inactive
10,Cc1oc(-c2ccccc2)cc1C(=O)NC1CCN(Cc2ccccc2)CC1,"inconclusive: 11.2 µM [inhibitor, partial curve]"
11,CCN(CC)S(=O)(=O)c1ccc(C)c(NC(=S)Nc2cccc(S(=O)(=O)N3CCCCCC3)c2)c1,"inconclusive: 31.6 µM [inhibitor, single point]"
12,Nc1nonc1-c1nc2ccccc2n1CC(=O)Nc1ccccc1,"inconclusive: 31.6 µM [inhibitor, single point]"
13,CC(NNC(=S)N1CCN(c2ccccn2)CC1)c1nccc2ccccc12 (centres undefined),"inconclusive: 39.8 µM [inhibitor, partial curve, poor fit]"
14,O=C(c1ccc2c(c1)OCO2)C1CCCN(Cc2cccn2-c2cccnc2)C1 (centres undefined),"inconclusive: 31.6 µM [inhibitor, single point]"
15,CCN(C(=O)COc1ccc(C)cc1OC)c1cccc2ccccc12,"inconclusive: 10 µM [inhibitor, partial curve]"
16,CC(C)c1cc(C(=O)NNC(=S)NCc2ccco2)c(O)c(C(C)C)c1,"inconclusive: 12.6 µM [inhibitor, partial curve]"
17,O=C(NC1CCCCC1)c1ccc(-c2cccc([N+](=O)[O-])c2)o1,"inconclusive: 14.1 µM [inhibitor, single point]"
18,Cc1c(C(=O)OCC(=O)NCCN2C(=O)CSC2=O)oc2c1ccc1ccccc12,"inconclusive: 11.2 µM [inhibitor, single point]"
19,CN(c1ccccc1)S(=O)(=O)c1cc(C(=O)Nc2ccccc2N2CCOCC2)ccc1Cl,"inconclusive: 2.51 µM [inhibitor, full curve]"
20,CCOC(=O)C1(Cc2ccccc2C(F)(F)F)CCN(C(C)COC)CC1 (centres undefined),inactive
21,CCCCOc1cc(C(=O)OCCN(CC)CC)ccc1N,"inconclusive: 31.6 µM [inhibitor, single point] and inconclusive: 2.82 µM [inhibitor, single point]"
22,O=C(CCNS(=O)(=O)c1ccccc1)NCCCc1ccccc1,inactive
23,Cc1ccc(OCCn2cncn2)c([N+](=O)[O-])c1,"inconclusive: 28.2 µM [inhibitor, single point]"

row,Compound,Potency
1,COc1ccccc1NC(=O)COc1ccc(/C=N/NC(=O)CSCc2cc(C)cc(C)c2)cc1,inactive
2,COc1cc(C(=O)N=c2sc3c(C)ccc(OC)c3n2C)cc(OC)c1OC,"inconclusive: 2 µM [inhibitor, full curve, poor fit]"
3,Cc1cccc(OCCNC(=O)c2cccc(Oc3ccc(C(F)(F)F)cc3[N+](=O)[O-])c2)c1,"inconclusive: 11.2 µM [inhibitor, partial curve]"
4,CC(=O)N1CCc2cc(S(=O)(=O)N3CCc4ccccc43)ccc21,"inconclusive: 31.6 µM [inhibitor, single point]"
5,CC12CC(NC(=O)N1c1ccc(C(=O)N3CCN(c4ccc(F)cc4)CC3)cc1)c1ccccc1O2 (centres undefined),inactive
6,CCCCCCCCn1c2c(c(=N)c3ccccc31)CCC2,active: 2.82 µM
7,CSc1ccc(CN2CCC(Oc3cccc(C(=O)N4CCCC4)c3)CC2)cc1,"inconclusive: 12.6 µM [inhibitor, single point]"
8,CCN(CC)C(=O)c1ccc(CS(=O)(=O)c2ccc(OC)cc2)o1,"inconclusive: 11.2 µM [inhibitor, single point]"
9,COc1cc(C(C)=O)ccc1OCC(O)CN1CCN(c2c(C)cccc2C)CC1 (centres undefined),"inconclusive: 1 µM [inhibitor, full curve, poor fit]"
10,COc1ccc(-n2c(/C=C/c3ccc(O)cc3)nc3ccccc3c2=O)cc1,"inconclusive: 28.2 µM [inhibitor, single point]"
11,O=C(Nc1ccc(N2CCN(C(=O)c3ccco3)CC2)cc1)c1cc(Br)ccc1Cl,"inconclusive: 22.4 µM [inhibitor, single point]"
12,COC(=O)C1=CN(c2cc(C)cc(C)c2)C=C(C(=O)OC)C1c1ccc(OC)c(O)c1,"inconclusive: 12.6 µM [inhibitor, single point]"
13,COc1ccc(-c2nn(-c3ccccc3)cc2/C=C2/SC(=S)N(Cc3ccco3)C2=O)c(C)c1,"inconclusive: 10 µM [inhibitor, partial curve, poor fit]"
14,ClCc1nc2ccccc2n1Cc1ccccc1,inactive
15,CCOC(=O)C1=C(N2CCCCC2)c2cc3c(n2C1=O)CCCC3,"inconclusive: 31.6 µM [inhibitor, single point]"
16,O=C(NN=C(Cc1ccccc1)Cc1ccccc1)c1ccccc1F,inactive
17,CNCCOc1ccc(Cl)c(Cl)c1,"inconclusive: 5.62 µM [inhibitor, full curve]"
18,Cc1cccc(-n2nc(C)cc2N)c1,inactive
19,Cc1sc2ncnc(N3CCN(S(=O)(=O)c4ccccc4)CC3)c2c1C,active: 11.2 µM
20,COc1cc(-c2nnc(SCC(=O)N(Cc3ccccc3)C(C)(C)C)o2)cc(OC)c1OC,"inconclusive: 11.2 µM [inhibitor, single point]"
21,CCOC(=O)c1c(C)[nH]c(C(=O)COC(=O)c2cc(C)oc2C)c1C,"inconclusive: 0.562 µM [inhibitor, full curve, poor fit]"
22,Cc1ccc(NC(=O)CN2CCN(C(=O)c3ccco3)CC2)cc1S(=O)(=O)N(C)C,inactive
23,O=C(C[n+]1cc(-c2ccccc2)n2c1CCC2)OCc1ccccc1,inactive

row,Compound,Potency
1,COc1ccc(NS(=O)(=O)c2ccc3nc(COc4ccc(C#N)cc4)[nH]c3c2)cc1,active: 12.6 µM
2,COCCNC(=O)CN(Cc1ccc(F)cc1)C(=O)CCC(=O)Nc1nccs1,inactive
3,N#C/C(=N\Nc1ccc([N+](=O)[O-])cc1)C(N)=S,active: 10 µM
4,CCN(CC(=O)NCc1cccs1)C(=O)CCC(=O)c1ccc(F)cc1,inactive
5,O=C(CCn1c(=S)oc2ccccc21)Nc1ccccc1F,inactive
6,CC(C)(C)c1csc(Sc2ccc([N+](=O)[O-])cn2)n1,"inconclusive: 31.6 µM [inhibitor, single point]"
7,CCOc1ccc(NS(=O)(=O)c2cccc(C(=O)NCC3(N(C)C)CCCCC3)c2)cc1,"inconclusive: 31.6 µM [inhibitor, single point]"
8,c1cncc(-c2ccc3[nH]ccc3c2)c1,"inconclusive: 10 µM [inhibitor, partial curve]"
9,CCN(CC)CCCC(C)NC(=O)c1ccc(C(F)(F)F)cc1 (centres undefined),"inconclusive: 11.2 µM [inhibitor, single point]"
10,COc1cc(/C=N/NC(=O)c2cnccn2)ccc1O,inactive
11,O=C(COC(=O)c1ccccc1C(=O)N1CCN(c2ccccc2)CC1)Nc1ccccc1,"inconclusive: 22.4 µM [inhibitor, single point]"
12,CCOc1cc(NC(=S)NCC(C)C)c(OCC)cc1NC(=O)c1ccco1,"inconclusive: 1.41 µM [inhibitor, full curve]"
13,Cc1ccc2nc3c(c(C(=O)OCC(=O)NC4CCS(=O)(=O)C4)c2c1)CCCC3 (centres undefined),"inconclusive: 5.62 µM [inhibitor, full curve]"
14,COCCN(C(=O)COC(=O)CCc1ccccc1)c1c(N)n(Cc2ccccc2)c(=O)[nH]c1=O,inactive
15,O=C(N/N=C/c1ccc(O)cc1O)c1ccncc1,"inconclusive: 12.6 µM [inhibitor, partial curve]"
16,Nc1ccc(C(=O)N2CCN(S(=O)(=O)c3ccc(Cl)s3)CC2)cc1[N+](=O)[O-],inactive
17,CC(C)(CNC(=O)C1c2ccccc2-c2ccccc21)N1CCOCC1,inactive
18,CNC(=S)N(Cc1ccc(OC)cc1)Cc1cc2ccc(C)cc2[nH]c1=O,"inconclusive: 2.24 µM [inhibitor, single point]"
19,O=C(CSc1nc2ccccc2o1)N1CCOCC1,inactive
20,O=C(CN1CCN(c2ccccn2)CC1)Nc1cc(C(F)(F)F)ccc1Cl,"inconclusive: 28.2 µM [inhibitor, single point]"
21,COc1ccc(-c2cn[nH]c2-c2ccc(OCc3ccc([N+](=O)[O-])cc3)cc2O)cc1OC,"inconclusive: 7.08 µM [inhibitor, partial curve]"
22,CCn1c2ccc(C)cc2c2nc3cc(C(=O)O)ccc3nc21,"inconclusive: 8.91 µM [inhibitor, partial curve]"
23,Cn1c(=O)[nH]c(=O)c2c1nc1n2CC(COc2ccc3ccccc3c2)O1 (centres undefined),"inconclusive: 31.6 µM [inhibitor, single point]"
